# Source: the supplement of paper PMC8728848
# This is one part of the list.
# B1: CLECb-Precomplexed (Mus musculus), P43025 (protein)
# chain: MAKNGLVLCILVVSLLLDQTDGYPSRMKARKHSKRRVKAKDDDLKSQVEKLWREVNALKEMQALQTVCLRGTKVHKKCYLASEGLKHYHEANEDCISKGGTLVVPRNSDEINALRDYGKRSLPGVNDFWLGINDMVTEGKFLDVHGFAVSFLNWDRAQPSGGKRENCVLFSQSAQGKWSDEACRSSKRYICEFIIPTRTRPLEQKLISEEDLAANDILDYKDDDDKV
# Target: Neu5Gc(b2-6)Gal(b1-4)GlcNAc
# Test: glycan array binding signal (z-score within array); higher = stronger binding
# Details: glycan notation: IUPAC condensed, linker removed
# How it was run: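 Arrays were curated from the Consortium for Functional Glycomics database, 3228 in total, and kept only where the protein sequence was available. Binding is expressed as a within-array Z-score. This score was averaged across arrays of the same protein sequence at different concentrations or buffers and across linkers, and negative values can be read as non-binding.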
binder,measurement,value
B1,glycan array binding signal (z-score),-0.414
